These results are taken from article PMC4336329 (PLoS ONE, 2015).

The structures appear in SMILES notation. Hit rate of the full screen: of about 310,000 compounds, about 14,000 (4.5%) showed an effect of 50% or more. The effect is printed as a negative number. The list shows a part of the results.
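Note: peak tail current of the secondary pulse compared with the same well before compound.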

Sequence of human ether-à-go-go-related gene (hERG) potassium channel (Q12809 whole entry, looked up): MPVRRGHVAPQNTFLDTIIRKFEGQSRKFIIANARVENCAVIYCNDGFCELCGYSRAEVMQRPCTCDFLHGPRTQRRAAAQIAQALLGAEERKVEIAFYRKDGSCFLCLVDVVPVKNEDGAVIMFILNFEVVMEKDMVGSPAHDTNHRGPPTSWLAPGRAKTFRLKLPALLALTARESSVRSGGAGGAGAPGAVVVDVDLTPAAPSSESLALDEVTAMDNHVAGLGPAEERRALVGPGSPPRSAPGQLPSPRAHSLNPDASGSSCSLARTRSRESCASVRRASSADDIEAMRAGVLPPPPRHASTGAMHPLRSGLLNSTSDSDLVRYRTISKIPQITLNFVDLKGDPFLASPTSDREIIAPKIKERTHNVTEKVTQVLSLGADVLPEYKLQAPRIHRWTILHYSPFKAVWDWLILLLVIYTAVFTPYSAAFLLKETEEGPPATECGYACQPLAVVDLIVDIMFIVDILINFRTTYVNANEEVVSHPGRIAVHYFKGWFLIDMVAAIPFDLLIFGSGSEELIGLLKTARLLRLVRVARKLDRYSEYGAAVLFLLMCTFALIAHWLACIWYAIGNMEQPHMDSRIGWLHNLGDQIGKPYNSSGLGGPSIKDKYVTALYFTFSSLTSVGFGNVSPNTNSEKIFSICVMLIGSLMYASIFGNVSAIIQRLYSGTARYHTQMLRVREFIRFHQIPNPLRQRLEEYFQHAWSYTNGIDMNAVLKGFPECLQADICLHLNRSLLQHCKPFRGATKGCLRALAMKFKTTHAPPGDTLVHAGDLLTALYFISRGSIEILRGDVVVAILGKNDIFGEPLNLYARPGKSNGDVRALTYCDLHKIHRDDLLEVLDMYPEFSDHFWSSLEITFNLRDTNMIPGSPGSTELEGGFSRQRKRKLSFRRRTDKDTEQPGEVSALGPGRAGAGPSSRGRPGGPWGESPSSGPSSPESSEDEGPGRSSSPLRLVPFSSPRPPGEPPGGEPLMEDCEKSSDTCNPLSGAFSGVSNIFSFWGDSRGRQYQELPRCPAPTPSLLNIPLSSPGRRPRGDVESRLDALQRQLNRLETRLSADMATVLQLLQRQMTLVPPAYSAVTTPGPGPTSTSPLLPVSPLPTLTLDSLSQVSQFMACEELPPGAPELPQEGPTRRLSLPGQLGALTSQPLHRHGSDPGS

This experiment has as its target human ether-à-go-go-related gene (hERG) potassium channel (human, UniProt Q12809). The experiment in a line: primary screen, population patch clamp on CHO cells stably expressing hERG.
Turning to `O=C1CCC(=O)N1c1cccc(OS(=O)(=O)c2ccccc2)c1`, the “hERG current change (%, negative = inhibition) at 10uM” value was 1.19%.
With `CCOC(=O)C1CCN(C(=O)COc2cccc3ccccc23)CC1` the figure was -2.75%; with `O=C(Cc1cccc(C(F)(F)F)c1)NCC(c1ccco1)N1CCCCC1` (centres unmarked), 5.38%.
With `c1ccc(OCc2nc3ccccc3[nH]2)cc1`, the “hERG current change (%, negative = inhibition) at 10uM” value was determined as 6.4%.
With `NNC(=O)CN1C(=O)Nc2ccc(Cl)cc2C1c1ccccc1` (centres unmarked) the figure was 9.01%; with `CCOC(=O)CS(=O)(=O)c1nc(-c2ccc(F)cc2)cc(C(F)(F)F)n1`, -21.3%.
Next, `COc1ccc(NC(=O)c2ccccc2-c2ccc(C(F)(F)F)cc2)cc1S(=O)(=O)N1CCOCC1`: -9.7%.
With `Nc1ccc2nc(-c3cccc(-c4nc5ccc(N)cc5[nH]4)n3)[nH]c2c1` the figure was 12.7%; with `CC(C)(O)C#Cc1ccc(CN2CCN(Cc3ccsc3)C(CCO)C2)s1` (centres unmarked), -11.1%; with `CCOC(=O)N1CCN(CC(=O)c2ccc3c(c2)CCN3)CC1`, -8.69%.
On to `S=c1[nH]nc(-c2ccccn2)n1/N=C/c1cccc2ccccc12`, for which the “hERG current change (%, negative = inhibition) at 10uM” value is 11%.
With `O=C(NCc1ccccc1Cl)C1CCN(C(=O)c2sccc2-n2cccc2)CC1` the figure was 4.44%.
Next, `Cc1ccccc1C1NC(c2ccccc2C)C([N+](=O)[O-])C(C)(C)C1[N+](=O)[O-]` (centres unmarked): 3.18%.
Turning to `O=C(N/N=C/c1ccc(Br)cc1)c1ccc(F)cc1`, the “hERG current change (%, negative = inhibition) at 10uM” value was determined as 0.487%.
As for `Cc1cccc2nc(CSc3nnc(N)s3)cn12`, the “hERG current change (%, negative = inhibition) at 10uM” value is -9.23%.
With `COCCNc1nc2c(c(=O)[nH]c(=O)n2C)n1CCCc1ccccc1` the figure was -1.45%; with `COc1ccc(/C=N/NC(=O)c2ccco2)cc1Cn1nc(C)cc1C`, -2.47%.
Next, `O=C(NCCCn1ccnc1)c1cccnc1`: -0.137%; `Cc1cc(C)nc(SCc2ccc(C(=O)N/N=C/c3cccnc3)cc2)n1`: -17.3%; `CC(C)(C(=O)O)n1cncn1.Cl`: 55.8%.
Turning to `COc1cc(C(=S)N2CCCC2)ccc1OCc1ccc(C)cc1`, the “hERG current change (%, negative = inhibition) at 10uM” value is given as 14%.
Next, `CN(c1ccccc1)S(=O)(=O)c1cccc(NC(=O)CSc2ncn[nH]2)c1`: -36.1%; `O=C(C[n+]1ccccn1)c1ccccc1.[Br-]`: 31.5%; `C=CCOc1ccc(C2/C(=C(\O)c3ccc4c(c3)OCCO4)C(=O)C(=O)N2CCCN2CCOCC2)cc1` (centres unmarked): 17.5%.
For the compound `CC(C)(C)N(C=C(Cl)Cl)C(=O)NC1CCCCC1`, the “hERG current change (%, negative = inhibition) at 10uM” value is 4.83%.
With `CCOc1ccc(N2CC(C(=O)N3CC(C)OC(C)C3)CC2=O)cc1` (centres unmarked) the figure was 20%; with `C#CCOCCOCCOCCNc1nc(N2CCN(C(=O)[C@H](CCC(=O)O)n3cc(C(N)Cc4ccc(O)cc4)nn3)CC2)nc(N2CCN(C(=O)[C@H](CCC(=O)O)n3cc(C(N)Cc4ccc(O)cc4)nn3)CC2)n1.Cl` (some centres unmarked), 14.3%; with `O=C(OCC(=O)N1CCc2ccccc21)c1ccc([N+](=O)[O-])cc1`, 13.2%.
Next, `CN[C@@H]1[C@H](O)[C@H](NC)[C@H]2O[C@@]3(O)C(=O)C[C@@H](C)O[C@H]3O[C@@H]2[C@H]1O.Cl.O`: 16.4%; `CC1Cc2ccccc2N1C(=O)CN1C(=O)COc2ccccc21` (centres unmarked): 9.34%.
`CCC1CN(C(=O)NCc2ccc(C)cc2)c2cc(Cl)ccc2O1` (centres unmarked): the “hERG current change (%, negative = inhibition) at 10uM” value is 17.8%.
Next, `Cc1nnc(SCC(=O)N(C)c2ccccc2)n1Cc1ccccc1`: -13.2%.
With `CCOC(=O)C1CCN(Cc2ccc(-c3ccccc3)cc2)CC1` the figure was -28.8%.
Next, `O=C(c1ccc(F)cc1)N1CCCC(c2nc(-c3ccncc3)no2)C1` (centres unmarked): -65.6%; `O=C(COC(=O)c1cccc(S(=O)(=O)N2CCOCC2)c1)NCCc1ccccc1`: 3.22%.
As to `Cn1nc(-c2ccc(Cl)cc2)c2cc(C(=O)NCCCN3CCOCC3)sc21`, the “hERG current change (%, negative = inhibition) at 10uM” value was -13.1%.
Turning to `CCCOc1ccccc1N/C(=N\S(=O)(=O)c1ccc(C)cc1)Nc1nc(C)cc(C)n1`, the “hERG current change (%, negative = inhibition) at 10uM” value stood at 26.1%.
With `N/C(=N\OCc1ccccc1)c1nonc1N` the figure was -1.49%.
With `COc1ccc(/C=N/NC(=O)c2c(Br)cnn2C)c2ccccc12` the figure was 4.95%.
As to `CCOC(=O)c1c(-c2cccc([N+](=O)[O-])c2)cn2ccccc12`, the “hERG current change (%, negative = inhibition) at 10uM” value stood at 13.3%.
Next, `Cc1cc(Oc2ccc(Cl)cc2)nc(-c2ccccn2)n1`: -0.301%.
With `COc1ccc(COC(=O)C2=C(C)NC(=O)NC2c2ccccc2)cc1` (centres unmarked), the “hERG current change (%, negative = inhibition) at 10uM” value was 5.54%.
Turning to `Cc1nc2ccc(C(=O)OCc3nnc(-c4ccc(Br)cc4)o3)cc2nc1C`, the “hERG current change (%, negative = inhibition) at 10uM” value is on record as 15.6%.
As for `O=C(NCc1ccc2c(c1)OCO2)C1CCC(CNc2c(N3CCCCC3)c(=O)c2=O)CC1` (centres unmarked), the “hERG current change (%, negative = inhibition) at 10uM” value was -6.5%.
For the compound `Cc1ccc2occ(/C=N/NC(=O)c3ccccc3O)c(=O)c2c1`, the “hERG current change (%, negative = inhibition) at 10uM” value is 15.8%.
As to `CCCOc1ccc(-c2csc3ncn(Cc4ccc(C(=O)O)cc4)c(=O)c23)cc1`, the “hERG current change (%, negative = inhibition) at 10uM” value is listed as -12.5%.
Turning to `CC1CCCN(S(=O)(=O)c2ccc(S(=O)(=O)N3CCCC3)cc2)C1` (centres unmarked), the “hERG current change (%, negative = inhibition) at 10uM” value is 24.7%.
Consider `Cc1ccc(C(=O)N/C(=C/C=C\c2ccccc2)C(=O)NCc2ccco2)cc1`, for which the “hERG current change (%, negative = inhibition) at 10uM” value is recorded as -27.7%.
Next, `CC(=O)Nc1ccc(OC(=O)Cc2ccc(Cl)cc2)cc1`: -2.26%; `Cc1cccc(N2CCN(C(=O)c3ccccc3NC(=O)C3=CSCCO3)CC2C)c1` (centres unmarked): -2.15%; `O=C(Nc1ccc(S(=O)(=O)N2CCOCC2)cc1)c1ccc([N+](=O)[O-])cc1Cl`: -42%.
With `Brc1ccc(-c2ncc3ccccn23)cc1` the figure was -15.9%.
With `COc1ccc(-n2ncc3c2CC(C)(C)CC3NC(=O)CN2CCOC2=O)cc1` (centres unmarked) the figure was -32.9%; with `COc1cc(/C=C(/NC(=O)c2ccccc2)C(=O)N2CCOCC2)c([N+](=O)[O-])cc1OC`, -3.92%.
For the compound `CSc1ccccc1C(=O)Nc1ncc(C)s1`, the “hERG current change (%, negative = inhibition) at 10uM” value was found to be 10.2%.
For the compound `COC(=O)c1sccc1S(=O)(=O)Nc1ccc(C)cc1`, the “hERG current change (%, negative = inhibition) at 10uM” value was found to be 14%.
Next, `O=C(NCCC1=CCCCC1)C1CCN(S(=O)(=O)c2cccc3nonc23)CC1`: 0.293%.
With `CCCCNC(=O)Cc1cc(=O)[nH]c(=O)[nH]1` the figure was 8.74%; with `C=C(C)CNC(=O)CCc1nnc(C2(c3ccc(Cl)cc3)CCC2)o1`, -23.9%; with `CCC(CC)C(=O)Nc1ccc(S(=O)(=O)Nc2nccs2)cc1`, 25.9%.
Take `N#CCCN(C(=O)Nc1ccc(Cl)c(Cl)c1)c1ccccc1`: the “hERG current change (%, negative = inhibition) at 10uM” value is recorded as -0.506%.
As to `Cc1cc2c(NC(=O)Nc3ccc(F)cc3)cccc2nn1`, the “hERG current change (%, negative = inhibition) at 10uM” value came out at 8.16%.
With `Nc1ccc(N2CCN(c3ccc(F)cc3)CC2)cc1` the figure was 1.37%.
With `COc1ccccc1CNC(=O)C1CCC(CNc2c(N3CCC(C)CC3)c(=O)c2=O)CC1` (centres unmarked), the “hERG current change (%, negative = inhibition) at 10uM” value amounted to 6.99%.
As to `CCCCN(CC)CCNC(=O)c1cc2c(-c3ccc(Cl)cc3)nn(C)c2s1`, the “hERG current change (%, negative = inhibition) at 10uM” value is -74.8%.
Consider `COc1ccc2ccccc2c1/C=N/N1C(=O)CSC1=S`, for which the “hERG current change (%, negative = inhibition) at 10uM” value was 16.7%.
In the case of `CCCCOc1ccc(/C=C(\C#N)C(=O)NC2CC2)cc1`, the “hERG current change (%, negative = inhibition) at 10uM” value is recorded as 1.55%.
Regarding `Cc1cc(CNC(=O)[C@H]2C[C@@H]2[C@H](NP(=O)(c2ccccc2)c2ccccc2)c2ccccc2)nn1C`, the “hERG current change (%, negative = inhibition) at 10uM” value is -0.941%.
Next, `Cc1ccc(C(=O)C2=C(O)C(=O)N(CCCN3CCOCC3)C23C(=O)N(C)c2ccccc23)o1` (centres unmarked): 27.9%; `Cc1ccc(NC(=O)NCCN2CCCCC2)cc1Cl`: -51.7%; `C=C(C)CSc1nnc(-c2cccc(Cl)c2)n1N`: 14%.
With `COc1cc(NS(=O)(=O)c2ccc(NC(=O)COc3ccccc3Cl)cc2)nc(OC)n1` the figure was -10.7%; with `COc1cc2c(cc1OC)C(C(=O)NC(C)C)C1CCCCN1C2=O` (centres unmarked), 10.7%; with `CCN(C(=O)Cc1c(C(=O)O)n(C)c2ccccc12)c1ccc(F)cc1`, 24.3%.
Next, `CC1(C)SC(=S)N(/N=C/c2ccccc2O)C1N(O)C(=O)Nc1ccccc1` (centres unmarked): -5.55%; `COCCOC(=O)C1=C(C)NC2=C(C(=O)CC(C)(C)C2)C1c1cc2c(cc1Br)OCO2` (centres unmarked): -1.29%; `CC1=C(C#N)C(c2cn(-c3ccccc3)nc2-c2cccs2)C(C#N)=C(C)N1`: -3.82%.
Consider `S=C(NCC1CCCO1)NC12CC3CC(CC(C3)C1)C2` (centres unmarked), for which the “hERG current change (%, negative = inhibition) at 10uM” value worked out at 8.93%.
Next, `CCOC(=O)C1CCN(C(=O)Cn2cc(C(=O)C3CC3)c3ccccc32)CC1`: 6.16%; `Cc1cccc(NS(=O)(=O)c2ccc3c(c2)NC(=O)CO3)c1C`: 3.88%.
Consider `COc1ccc(N2C(=O)CSC23CCC(C(C)(C)C)CC3)cc1` (centres unmarked), for which the “hERG current change (%, negative = inhibition) at 10uM” value is recorded as -9.15%.
With `COCCn1c(SCC(=O)N2CCCC2)nnc1-c1ccoc1C` the figure was 5.15%.
Next, `Oc1ccc(C2N=C(c3ccccc3)NC(c3ccccc3)=N2)cc1`: -0.167%; `O=c1cc(CO)oc(C(Nc2ccccn2)c2ccc(C(F)(F)F)cc2)c1O` (centres unmarked): 7.19%.
Next, `C/C(=N\Nc1nncc2ccccc12)c1ccc(C(C)(C)C)cc1`: 18.9%; `O=C(NC1CC2CCC(C1)N2C(=O)NC1CCCCC1)NC12CC3CC(CC(C3)C1)C2` (centres unmarked): 0.38%.
